Molecules are shown by their SMILES. About 2,200 (0.71%) of roughly 310,000 compounds showed an effect of 50% or more. The effect is printed as a negative number. The list shows a part of the results.

Sequence of human ether-à-go-go-related gene (hERG) potassium channel (Q12809 whole entry, looked up): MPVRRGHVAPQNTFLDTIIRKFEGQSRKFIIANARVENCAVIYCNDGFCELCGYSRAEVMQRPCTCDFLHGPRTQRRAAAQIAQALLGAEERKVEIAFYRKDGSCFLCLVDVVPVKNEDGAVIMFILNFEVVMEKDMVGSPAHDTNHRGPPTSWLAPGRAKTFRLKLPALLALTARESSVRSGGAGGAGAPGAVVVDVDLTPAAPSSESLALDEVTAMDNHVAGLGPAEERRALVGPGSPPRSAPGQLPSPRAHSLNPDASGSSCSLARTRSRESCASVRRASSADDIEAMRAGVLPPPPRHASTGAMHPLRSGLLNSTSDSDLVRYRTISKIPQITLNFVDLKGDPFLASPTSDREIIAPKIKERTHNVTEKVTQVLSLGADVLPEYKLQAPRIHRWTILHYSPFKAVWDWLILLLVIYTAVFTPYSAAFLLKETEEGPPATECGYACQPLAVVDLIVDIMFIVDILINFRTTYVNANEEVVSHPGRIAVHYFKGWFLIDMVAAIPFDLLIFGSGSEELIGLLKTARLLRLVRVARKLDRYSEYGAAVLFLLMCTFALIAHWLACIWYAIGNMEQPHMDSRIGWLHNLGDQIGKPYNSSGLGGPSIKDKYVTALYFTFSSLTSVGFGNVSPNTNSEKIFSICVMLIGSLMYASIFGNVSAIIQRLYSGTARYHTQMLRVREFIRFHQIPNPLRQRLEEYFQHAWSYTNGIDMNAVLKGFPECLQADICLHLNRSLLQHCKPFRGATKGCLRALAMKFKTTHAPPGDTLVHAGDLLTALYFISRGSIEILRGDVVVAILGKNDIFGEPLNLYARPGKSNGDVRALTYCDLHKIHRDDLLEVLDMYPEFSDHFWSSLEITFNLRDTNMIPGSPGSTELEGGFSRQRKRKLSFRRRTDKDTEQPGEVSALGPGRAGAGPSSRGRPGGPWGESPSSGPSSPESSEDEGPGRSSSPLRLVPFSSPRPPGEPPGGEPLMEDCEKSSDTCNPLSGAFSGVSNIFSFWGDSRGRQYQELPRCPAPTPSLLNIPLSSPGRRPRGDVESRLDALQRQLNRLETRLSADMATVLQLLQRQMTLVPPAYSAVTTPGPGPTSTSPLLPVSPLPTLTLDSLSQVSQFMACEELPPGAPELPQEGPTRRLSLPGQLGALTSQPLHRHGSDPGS

The assay concerns the target human ether-à-go-go-related gene (hERG) potassium channel (human, UniProt Q12809). Briefly: primary screen, population patch clamp on CHO cells stably expressing hERG.
Consider `O=C(NC1CCCC1)C1CCCN1C(=O)Nc1ccccc1Cl` (centres unmarked), for which the “hERG current change (%, negative = inhibition) at 1uM” value is 1.95%.

On to `Cc1ccn2cc(-c3cccc(S(=O)(=O)N4CC(C)OC(C)C4)c3)nc2c1` (centres unmarked), for which the “hERG current change (%, negative = inhibition) at 1uM” value is 14.7%.

Turning to `CN(c1ccccc1)S(=O)(=O)c1ccc(C(=O)NCc2ccccn2)cc1`, the “hERG current change (%, negative = inhibition) at 1uM” value is given as 6.41%.

In the case of `CCN(CC)C(=O)c1sc(NC(=O)c2ccco2)c(C#N)c1C`, the “hERG current change (%, negative = inhibition) at 1uM” value is on record as 3.1%.

Consider `CC(=O)c1ccc(NC(=O)C2C3CCC(C3)C2C(=O)O)cc1` (centres unmarked), for which the “hERG current change (%, negative = inhibition) at 1uM” value was determined as 15.8%.

As to `CCOC(=O)NC1(NCC(C)C)Oc2ccccc2O1`, the “hERG current change (%, negative = inhibition) at 1uM” value was determined as 3.97%.

`O=c1c(-c2ccc(Cl)cc2)coc2c(CN3CCOCC3)c(O)ccc12`: the “hERG current change (%, negative = inhibition) at 1uM” value is on record as 3.94%.

As to `CC1CCCN(Cc2nc3c(c(=O)n(C)c(=O)n3C)n2CCCc2ccccc2)C1` (centres unmarked), the “hERG current change (%, negative = inhibition) at 1uM” value is recorded as 6.69%.

Take `O=C(O)c1ccc(-n2nc(C(F)(F)F)c3c2CCCC3)cc1`: the “hERG current change (%, negative = inhibition) at 1uM” value is 15.2%.

Turning to `O=C(CSc1nnc(CNC(=O)c2cccs2)o1)Nc1ccccc1C(F)(F)F`, the “hERG current change (%, negative = inhibition) at 1uM” value was 7.51%.

`COc1ccc(NC(=O)c2cccnc2)c([N+](=O)[O-])c1`: the “hERG current change (%, negative = inhibition) at 1uM” value came to 6.98%.

Take `CC(CCc1ccccc1)NC(=O)COC(=O)c1cccc(N(C)C)c1` (centres unmarked): the “hERG current change (%, negative = inhibition) at 1uM” value is 1.39%.

Consider `CCCC1=C(C(=O)OCC)C(c2ccccc2OC)NC(=O)N1` (centres unmarked), for which the “hERG current change (%, negative = inhibition) at 1uM” value is recorded as 16.8%.

For `COCCNC(=O)C(c1ccc(F)cc1)N(C(=O)CCC(=O)Nc1nccs1)c1ccc(C)cc1` (centres unmarked), the “hERG current change (%, negative = inhibition) at 1uM” value is 9.55%.

As to `CCOC(=O)c1c(CSCc2ccccc2)oc2ccc(O)c(CN(C)C)c12.Cl`, the “hERG current change (%, negative = inhibition) at 1uM” value turned out to be 0.859%.

As to `Cc1csc2c(SCC(=O)NNC(=O)C(Cl)Cl)ncnc12`, the “hERG current change (%, negative = inhibition) at 1uM” value is listed as 9.55%.

In the case of `COCCn1nnnc1CN1CCN(c2cccc(C(F)(F)F)c2)CC1`, the “hERG current change (%, negative = inhibition) at 1uM” value is -3.76%.

For the molecule `Cc1ccn(-c2cccc(-n3ccc(C)n3)n2)n1`, the “hERG current change (%, negative = inhibition) at 1uM” value came out at 12.1%.

For the molecule `CC1(C)CC(=O)C2=C(C1)N(c1ccc(F)cc1)C(N)=C(C#N)C2c1cccs1` (centres unmarked), the “hERG current change (%, negative = inhibition) at 1uM” value was 4.89%.

With `CCC(=O)NC(c1cc(Cl)c2cccnc2c1O)C1CC1` (centres unmarked), the “hERG current change (%, negative = inhibition) at 1uM” value is given as -0.0779%.

With `O=C1Nc2ccccc2/C1=N\N1CCOCC1`, the “hERG current change (%, negative = inhibition) at 1uM” value turned out to be 8.38%.

For the molecule `Cc1ccc(N2CCN(/N=C/c3ccccc3)CC2)cc1`, the “hERG current change (%, negative = inhibition) at 1uM” value was -0.671%.

Regarding `CCc1ccc(NC(=O)CCn2cccc2)cc1`, the “hERG current change (%, negative = inhibition) at 1uM” value was determined as 11.5%.

Turning to `O=C(Nc1ccccc1)OCc1cnc(Cl)s1`, the “hERG current change (%, negative = inhibition) at 1uM” value was 18.7%.

Regarding `O=c1ccc(S(=O)(=O)N2CCCC2)cn1Cc1ccc(Cl)cc1Cl`, the “hERG current change (%, negative = inhibition) at 1uM” value is -0.528%.

Take `COc1ccc(C(=O)NCC(=O)OCC(=O)Nc2ncc(Cl)cc2Cl)cc1[N+](=O)[O-]`: the “hERG current change (%, negative = inhibition) at 1uM” value was 10.7%.

These data come from paper PMC4336329 (PLoS ONE, 2015).
